Assay results: the supplement of paper PMC8728848
The list shows a part of the results.

How the values were obtained:
Test in all cases: glycan array binding signal (z-score within array); higher = stronger binding
Settings in all cases: glycan notation: IUPAC condensed, linker removed
[1] = biological target: Neu5Ac(a2-6)Gal(b1-4)GlcNAc(b1-2)Man(a1-3)[Man(a1-6)]Man(b1-4)GlcNAc(b1-4)GlcNAc
Method in brief: (§1)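 Glycan array data were curated from 3228 arrays in the Consortium for Functional Glycomics database and kept only where the protein sequence was available. Glycan names were converted to IUPAC-condensed notation, and columns mapping to the same glycan were averaged. The binding signal is a within-array Z-score, averaged across arrays of the same protein sequence at different concentrations or buffers and across linkers. Negative Z-scores can be read as non-binding.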

[2] = biological target: Neu5Ac(a2-6)Gal(b1-4)GlcNAc(b1-2)Man(a1-3)[Neu5Ac(a2-3)Gal(b1-4)GlcNAc(b1-2)Man(a1-6)]Man(b1-4)GlcNAc(b1-4)GlcNAc
Method in brief: as §1

[3] = biological target: Neu5Ac(a2-6)Gal(b1-4)GlcNAc(b1-2)Man(a1-3)[Neu5Ac(a2-6)Gal(b1-4)GlcNAc(b1-2)Man(a1-6)]Man(b1-4)GlcNAc(b1-4)GlcNAc
Method in brief: as §1

[4] = biological target: Neu5Ac(a2-6)Gal(b1-4)GlcNAc(b1-2)Man(a1-3)[Neu5Ac(a2-6)Gal(b1-4)GlcNAc(b1-2)Man(a1-6)]Man(b1-4)GlcNAc(b1-4)[Fuc(a1-6)]GlcNAc
Method in brief: as §1

[5] = biological target: Neu5Ac(a2-6)Gal(b1-4)GlcNAc(b1-2)Man(a1-6)Man(b1-4)GlcNAc(b1-4)GlcNAc
Method in brief: as §1

[6] = biological target: Neu5Ac(a2-6)Gal(b1-4)GlcNAc(b1-2)Man(a1-6)[Gal(b1-4)GlcNAc(b1-2)Man(a1-3)]Man(b1-4)GlcNAc(b1-4)GlcNAc
Method in brief: as §1

[7] = biological target: Neu5Ac(a2-6)Gal(b1-4)GlcNAc(b1-2)Man(a1-6)[GlcNAc(b1-2)Man(a1-3)]Man(b1-4)GlcNAc(b1-4)GlcNAc
Method in brief: as §1

[8] = biological target: Neu5Ac(a2-6)Gal(b1-4)GlcNAc(b1-2)Man(a1-6)[Man(a1-3)]Man(b1-4)GlcNAc(b1-4)GlcNAc
Method in brief: as §1

[9] = biological target: Neu5Ac(a2-6)Gal(b1-4)GlcNAc(b1-2)[Neu5Ac(a2-6)Gal(b1-4)GlcNAc(b1-4)]Man(a1-3)[GlcNAc(b1-4)][Neu5Ac(a2-6)Gal(b1-4)GlcNAc(b1-2)[Neu5Ac(a2-6)Gal(b1-4)GlcNAc(b1-6)]Man(a1-6)]Man(b1-4)GlcNAc(b1-4)GlcNAc
Method in brief: as §1

[10] = biological target: Neu5Ac(a2-6)Gal(b1-4)GlcNAc(b1-2)[Neu5Ac(a2-6)Gal(b1-4)GlcNAc(b1-4)]Man(a1-3)[GlcNAc(b1-4)][Neu5Ac(a2-6)Gal(b1-4)GlcNAc(b1-4)Man(a1-6)]Man(b1-4)GlcNAc(b1-4)GlcNAc
Method in brief: as §1

[11] = biological target: Neu5Ac(a2-6)Gal(b1-4)GlcNAc(b1-2)[Neu5Ac(a2-6)Gal(b1-4)GlcNAc(b1-6)]Man(a1-6)[Neu5Ac(a2-6)Gal(b1-4)GlcNAc(b1-2)Man(a1-3)][GlcNAc(b1-4)]Man(b1-4)GlcNAc(b1-4)GlcNAc
Method in brief: as §1

[12] = biological target: Neu5Ac(a2-6)Gal(b1-4)GlcNAc(b1-3)Gal(b1-3)GlcNAc
Method in brief: as §1

[13] = biological target: Neu5Ac(a2-6)Gal(b1-4)GlcNAc(b1-3)Gal(b1-4)GlcNAc
Method in brief: as §1

[14] = biological target: Neu5Ac(a2-6)Gal(b1-4)GlcNAc(b1-3)Gal(b1-4)GlcNAc(b1-2)Man(a1-3)[Neu5Ac(a2-6)Gal(b1-4)GlcNAc(b1-3)Gal(b1-4)GlcNAc(b1-2)Man(a1-6)]GalNAc
Method in brief: as §1

[15] = biological target: Neu5Ac(a2-6)Gal(b1-4)GlcNAc(b1-3)Gal(b1-4)GlcNAc(b1-3)Gal(b1-4)GlcNAc
Method in brief: as §1

[16] = biological target: Neu5Ac(a2-6)Gal(b1-4)GlcNAc(b1-3)Gal(b1-4)GlcNAc(b1-3)Gal(b1-4)GlcNAc(b1-2)Man(a1-3)[Neu5Ac(a2-6)Gal(b1-4)GlcNAc(b1-3)Gal(b1-4)GlcNAc(b1-3)Gal(b1-4)GlcNAc(b1-2)Man(a1-6)]GalNAc
Method in brief: as §1

[17] = biological target: Neu5Ac(a2-6)Gal(b1-4)GlcNAc(b1-3)Gal(b1-4)GlcNAc(b1-3)GalNAc
Method in brief: as §1

[18] = biological target: Neu5Ac(a2-6)Gal(b1-4)GlcNAc(b1-3)Gal(b1-4)GlcNAc(b1-3)[Neu5Ac(a2-6)Gal(b1-4)GlcNAc(b1-3)Gal(b1-4)GlcNAc(b1-6)]GalNAc
Method in brief: as §1

[19] = biological target: Neu5Ac(a2-6)Gal(b1-4)GlcNAc(b1-3)Gal(b1-4)GlcNAc(b1-6)[Gal(b1-3)]GalNAc
Method in brief: as §1

[20] = biological target: Neu5Ac(a2-6)Gal(b1-4)GlcNAc(b1-3)Gal(b1-4)[Fuc(a1-3)]GlcNAc(b1-3)Gal(b1-4)[Fuc(a1-3)]GlcNAc
Method in brief: as §1

[21] = biological target: Neu5Ac(a2-6)Gal(b1-4)GlcNAc(b1-3)GalNAc
Method in brief: as §1

[22] = biological target: Neu5Ac(a2-6)Gal(b1-4)GlcNAc(b1-3)[Neu5Ac(a2-6)Gal(b1-4)GlcNAc(b1-6)]GalNAc
Method in brief: as §1

[23] = biological target: Neu5Ac(a2-6)Gal(b1-4)GlcNAc(b1-6)GalNAc
Method in brief: as §1

[24] = biological target: Neu5Ac(a2-6)Gal(b1-4)GlcNAc(b1-6)[Gal(b1-3)GlcNAc(b1-3)]Gal(b1-4)Glc
Method in brief: as §1

[25] = biological target: Neu5Ac(a2-6)Gal(b1-4)GlcNAc(b1-6)[Gal(b1-3)]GalNAc
Method in brief: as §1

[26] = biological target: Neu5Ac(a2-6)Gal(b1-4)GlcNAc6S
Method in brief: as §1

[27] = biological target: Neu5Ac(a2-6)GalNAc
Method in brief: as §1

[28] = biological target: Neu5Ac(a2-6)GalNAc(b1-4)GlcNAc
Method in brief: as §1

[29] = biological target: Neu5Ac(a2-6)GalNAc(b1-4)GlcNAc6S
Method in brief: as §1

[30] = biological target: Neu5Ac(a2-6)GlcNAc(b1-4)GlcNAc
Method in brief: as §1

[31] = biological target: Neu5Ac(a2-6)GlcNAc(b1-4)GlcNAc(b1-4)GlcNAc
Method in brief: as §1

B1: PX9961U-pdi-543-24-543 (Parabacteroides distasonis) (protein)
chain: EEPVGEFLPGQVESEENIEGIVTGAYAVLDGYYASDAINSGCSNWQFGDVVSDDAYKGGGGTGDQNQIHLMEIFNANPTGIDFEARWAALYEGIKRCNQAIRLLNGSEVKNKEQRLAEMRFLRGHYYFNLKIIYNQIPWIDETLVDPNEYNKKSNIEFSSDQLWEKILEEFSAAYKVLPESQADYGRPTKMAARAYMAKVYLYQSKWKECLEACDEVIQSGKYELFPDFRNVFLPENDNCSEIIFAIQLSINDGSPNNENGSYGDRLLPPGGPYPVYGFLRPTQNLVNAYKTDVKGLPYNDGKDVSENDYVDVRLDHTLARPNIPFMDVQLYDWTPREASVYGPYSPKKRLVSLNSTYYSPIWPYVNALNFYVIRYADLLLWRAEAAIETGDLETGRKYINMIRERAKNTQHVKTMDQSQDAANYKVGVYDEPFKSKNEAVQALRMERRLEMAHEGIRFFDLVRWGVADEVINAYIAKEKVFRSHLQNAHFVKGKHEYFPIPQSMIDICGTEVMKQNPGY
glycan array binding signal (z-score) [1]: -0.14
glycan array binding signal (z-score) [2]: -0.337
glycan array binding signal (z-score) [3]: -0.347
glycan array binding signal (z-score) [4]: 0.4
glycan array binding signal (z-score) [5]: -0.116
glycan array binding signal (z-score) [6]: -0.374
glycan array binding signal (z-score) [7]: -0.448
glycan array binding signal (z-score) [8]: -0.372
glycan array binding signal (z-score) [9]: -0.416
glycan array binding signal (z-score) [10]: 1.18
glycan array binding signal (z-score) [11]: -0.387
glycan array binding signal (z-score) [12]: -0.324
glycan array binding signal (z-score) [13]: -0.364
glycan array binding signal (z-score) [14]: 0.202
glycan array binding signal (z-score) [15]: -0.041
glycan array binding signal (z-score) [16]: 0.5
glycan array binding signal (z-score) [17]: -0.37
glycan array binding signal (z-score) [18]: -0.061
glycan array binding signal (z-score) [19]: -0.238
glycan array binding signal (z-score) [20]: 0.556
glycan array binding signal (z-score) [21]: 1.92
glycan array binding signal (z-score) [22]: 0.015
glycan array binding signal (z-score) [23]: -0.28
glycan array binding signal (z-score) [24]: -0.485
glycan array binding signal (z-score) [25]: -0.357
glycan array binding signal (z-score) [26]: -0.381
glycan array binding signal (z-score) [27]: -0.388
glycan array binding signal (z-score) [28]: -0.417
glycan array binding signal (z-score) [29]: -0.272
glycan array binding signal (z-score) [30]: -0.419
glycan array binding signal (z-score) [31]: -0.445
